In PubChem BioAssay AID504832 (National Center for Advancing Translational Sciences (NCATS), 2011):
Screen size: about 310,000 compounds; about 18,000 (5.8%) were called active. Inconclusive means that the source gave no clear call. Such entries were picked first, then a sample of the others. Calls follow the shape of the dose curve; as a rule, active = well fitted inhibition curve with a large enough effect; inconclusive = small, poorly fitted or top-dose-only effect, or another doubt; inactive = no such curve, though single readings can be large or run the other way. No potency is given beside an inconclusive call; the fits are too rough.

Assay: Primary qHTS for delayed death inhibitors of the malarial parasite plastid, 48 hour incubation
Conditions: P. falciparum luciferase growth in erythrocytes; series mostly up to 28.7 µM; activity change, negative = inhibition: at the top concentration
Method in brief: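 Here the parasites carry a stable luciferase gene and grow inside erythrocytes in Albumax-based RPMI medium with compound for one erythrocytic cycle. Activity is scored as loss of luminescent signal.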
% is scaled to controls: 0 for no effect and ±100 for the full control effect; potency is read from the fitted curve at half-maximal effect; tags tell the direction and shape of the fitted curve.

Q: With `O=C1ON=C(c2ccccc2)/C1=C/c1cccnc1` as the molecule, how does the “activity change, negative = inhibition” value read?
A: Its value is inactive: 6.83%.

Q: Which “activity change, negative = inhibition” value does the source give for `COc1ncnc(OC)c1S(=O)(=O)Nc1ccc(C(F)(F)F)cc1` here?
A: Its value is inactive: -7.66%.

Q: For `CCOC(=O)c1cc(C#N)c(N2CCOCC2)nc1-c1ccccc1`, which “activity change, negative = inhibition” value is on record?
A: The value was inactive: 1.52%.

Q: For `CC(=O)Nc1nc(C)c(C(C)(C)C)s1`, which Potency is on record?
A: Its Potency is inconclusive [inhibitor, full curve, poor fit].

Q: With `CCCNC(=O)C(Cc1ccc(F)cc1)NC(=O)c1ccccc1` (configuration not stated) as the molecule, how does the “activity change, negative = inhibition” value read?
A: The value was inactive: 11.4%.

Q: Which Potency does the source give for `CCCCCOC(=O)Cn1c(N2CCCCCC2)nc2c1c(=O)[nH]c(=O)n2C` here?
A: The Potency was inconclusive [inhibitor, partial curve, poor fit].

Q: For `Cc1cccc(-c2nnc(SCC(=O)N3CCOCC3)o2)c1`, which “activity change, negative = inhibition” value is on record?
A: The value was inactive: 119%.

Q: Which “activity change, negative = inhibition” value does the source give for `CCCOc1cccc(C(=O)NCCCNC(=O)c2ccccn2)c1` here?
A: The value was inactive: 11.1%.

Q: With `O=C(O)c1cc(=O)[nH]c(=O)[nH]1` as the molecule, how does the Potency read?
A: Its Potency is inconclusive [inhibitor, single point].

Q: Which Potency does the source give for `Cc1nn(-c2ccccc2)c(N2CCCC2)c1/C=N/NC(=O)c1ccccc1O` here?
A: Its Potency is active: 8.28 µM.

Q: With `CC1=NNC(=O)/C1=C\c1cn(-c2ccccc2)nc1-c1ccccc1` as the molecule, how does the Potency read?
A: The Potency was inconclusive [inhibitor, single point].

Q: Which Potency does the source give for `OCCn1ccc(-c2ccccc2OCc2ccc(F)cc2)n1` here?
A: Its Potency is inconclusive [inhibitor, single point].

Q: With `Cc1nonc1CN(C)C(=O)c1cc(COc2ccc(F)cc2Cl)on1` as the molecule, how does the “activity change, negative = inhibition” value read?
A: Its value is inactive: 17%.

Q: With `COCc1cc(C)[nH]c(=O)c1C(=O)NC12CC3CC(CC(C3)C1)C2` as the molecule, how does the Potency read?
A: Its Potency is inconclusive [inhibitor, single point].

Q: With `CCCCN1C(=S)NC[C@@H]1c1ccccc1` as the molecule, how does the Potency read?
A: Its Potency is inconclusive [inhibitor, partial curve, poor fit].

Q: Which Potency does the source give for `CCOc1ccc(NC(=O)CN(C)C(=O)c2c(-c3ccccc3Cl)noc2C)cc1OCC` here?
A: Its Potency is inconclusive [inhibitor, single point].

Q: With `C=C(C)Cn1c(SCCN2CCOCC2)nc2c1c(=O)[nH]c(=O)n2C` as the molecule, how does the “activity change, negative = inhibition” value read?
A: The value was inactive: 4.26%.

Q: For `CCOc1ccc(CN2CCN(S(=O)(=O)c3ccc(NC(C)=O)cc3)CC2)cc1`, which Potency is on record?
A: The Potency was inconclusive [inhibitor, partial curve, poor fit].

Q: With `Cc1cc(C(=O)N/N=C/c2c(C)nn(-c3ccccc3)c2Cl)n[nH]1` as the molecule, how does the Potency read?
A: Its Potency is inconclusive [inhibitor, partial curve, poor fit].

Q: For `CCOC(=O)c1[nH]c2ccc(OC)cc2c1NC(=S)N1CCN(C(=O)OCC)CC1`, which Potency is on record?
A: Its Potency is inconclusive [inhibitor, single point].

Q: With `COc1cc(/C=C/C(=O)OCC(=O)Nc2ccc([N+](=O)[O-])cc2)ccc1O` as the molecule, how does the Potency read?
A: The Potency was inconclusive [inhibitor, single point].

Q: Which Potency does the source give for `O=[N+]([O-])c1cccc(-c2ccc(/C=N/NC(=S)Nc3cccc(F)c3)o2)c1` here?
A: Its Potency is inconclusive [inhibitor, single point].

Q: For `CCOc1ccccc1N(C(=O)c1ccccc1Cl)C1=NC(C)(C)CS1`, which Potency is on record?
A: Its Potency is inconclusive [inhibitor, partial curve, poor fit].

Q: Which “activity change, negative = inhibition” value does the source give for `O=[N+]([O-])c1cccc(/C=N/N2CCN(c3ccccn3)CC2)c1` here?
A: The value was inactive: 33.3%.

Q: With `O=C(c1ccc(Cn2c(=O)[nH]c3ccsc3c2=O)cc1)N1CCN(c2ccccc2)CC1` as the molecule, how does the Potency read?
A: Its Potency is inconclusive [inhibitor, single point].

Q: Which Potency does the source give for `COc1cc(-c2cc(C(=O)Nc3cccc(C(C)=O)c3)c3ccccc3n2)cc(OC)c1OC` here?
A: The Potency was inconclusive [inhibitor, partial curve].

Q: For `COc1cccc(C(C(=O)NC(C)(C)C)N(C(=O)CCC(=O)Nc2cc(C)on2)C(C)(C)C)c1OC` (configuration not stated), which Potency is on record?
A: Its Potency is inconclusive [inhibitor, partial curve].

Q: With `CC(=O)Nc1ccc(NC(=O)CCC(=O)Oc2ccc(C)cc2)cc1` as the molecule, how does the “activity change, negative = inhibition” value read?
A: Its value is inactive: -0.517%.

Q: Which “activity change, negative = inhibition” value does the source give for `O=C(N/N=C/c1cccnc1)c1cccc(F)c1` here?
A: Its value is inactive: 25.6%.

Q: Which Potency does the source give for `O=C(O)C12CC3CC(C1)CC(n1ncc(NCc4ccco4)c(Cl)c1=O)(C3)C2` here?
A: Its Potency is inconclusive [inhibitor, partial curve].

Q: With `Nc1nc(N2CCOCC2)nc2ccccc12` as the molecule, how does the “activity change, negative = inhibition” value read?
A: The value was inactive: 4.07%.

Q: For `Cc1ccc(NC(=S)N=Nc2c(O)n(C)c3ccc(S(=O)(=O)N4CCOCC4)cc23)cc1C`, which Potency is on record?
A: Its Potency is active: 3.29 µM.

Q: With `CNC(=O)CC1C(=O)N(c2ccc(F)cc2)C(=S)N1NC(=O)c1ccc(Cl)cc1` (configuration not stated) as the molecule, how does the “activity change, negative = inhibition” value read?
A: Its value is inactive: 53.1%.

Q: For `O=C(Cc1ccc(Cl)cc1)Nc1ccccc1C(=O)Nc1ccc(C(=O)O)cc1`, which “activity change, negative = inhibition” value is on record?
A: The value was inactive: 12%.

Q: With `O=C(NCCCN1CCOCC1)c1cc(-c2ccc(Cl)c(Cl)c2)on1` as the molecule, how does the Potency read?
A: Its Potency is inconclusive [inhibitor, single point].

Q: With `Cc1nn(C(C)(C)C)c(NC(=O)c2ccccc2)c1C#N` as the molecule, how does the Potency read?
A: The Potency was inconclusive [inhibitor, partial curve, poor fit].

Q: With `CCC1CSC(Nc2ccc(C(=O)/C=C/c3ccc(Oc4ccccc4)cc3)cc2)=N1` (configuration not stated) as the molecule, how does the Potency read?
A: Its Potency is active: 10.4 µM.

Q: With `CC1CCCCN1C(=O)COC(=O)c1cc(-c2cccs2)nn1-c1ccccc1` (configuration not stated) as the molecule, how does the Potency read?
A: The Potency was inconclusive [inhibitor, partial curve, poor fit].

Q: With `O=C(Nc1ccccc1Cl)C1CCCN(S(=O)(=O)c2cccc3cccnc23)C1` (configuration not stated) as the molecule, how does the Potency read?
A: The Potency was inconclusive [inhibitor, single point].

Q: For `COc1cc(N/C(N)=N/c2nc(C)cc(C)n2)c(OC)cc1Cl`, which Potency is on record?
A: Its Potency is inconclusive [inhibitor, single point].

Q: Which “activity change, negative = inhibition” value does the source give for `C[C@@H]1CCC(=O)N(CC[C@H](N=[N+]=[N-])c2ccccc2)CC1` here?
A: The value was inactive: 43.9%.

Q: For `FC(F)(F)c1cc(Oc2ccccc2Cl)nc(-c2ccccn2)n1`, which “activity change, negative = inhibition” value is on record?
A: The value was inactive: 36.9%.

Q: With `CCOc1ccccc1NC(=O)C1CCCN(S(=O)(=O)c2ccccc2)C1` (configuration not stated) as the molecule, how does the Potency read?
A: Its Potency is inconclusive [inhibitor, partial curve, poor fit].

Q: Which Potency does the source give for `COc1cccc(/C=N/NC(=O)c2oc3nc(-c4ccccc4)cc(-c4ccco4)c3c2N)c1` here?
A: Its Potency is inconclusive [inhibitor, single point].

Q: Which “activity change, negative = inhibition” value does the source give for `CCOC(=O)c1ccccc1NC(=O)c1c(F)c(F)c(F)c(F)c1F` here?
A: The value was inactive: -5.34%.

Q: For `Cc1ccc2c(CN3CC(C)CC(C)C3)cc(=O)oc2c1C` (configuration not stated), which Potency is on record?
A: Its Potency is inconclusive [inhibitor, single point].

Q: Which Potency does the source give for `O=C(NCCc1ccccc1)C1CCN(S(=O)(=O)c2ccc(Br)s2)CC1` here?
A: The Potency was inconclusive [inhibitor, single point].

Q: Which Potency does the source give for `Cc1ccc(NC(=O)CSc2ccccc2)cc1S(=O)(=O)N1CCOCC1` here?
A: The Potency was inconclusive [inhibitor, single point].

Q: For `O=C1c2ccccc2C(=O)N1CCCCN(C(=O)c1cc([N+](=O)[O-])cc([N+](=O)[O-])c1)c1ccc(Cl)cc1`, which Potency is on record?
A: The Potency was inconclusive [inhibitor, single point].

Q: For `O=C(N/N=C/c1cc(Cl)cc([N+](=O)[O-])c1O)NC12CC3CC(CC(C3)C1)C2`, which “activity change, negative = inhibition” value is on record?
A: The value was inactive: -21.3%.

Q: With `CCCC(=O)Nc1cc2c(cc1C(=O)c1ccccc1)OCCO2` as the molecule, how does the Potency read?
A: Its Potency is inconclusive [inhibitor, partial curve].

Q: Which Potency does the source give for `Cc1cc(NS(=O)(=O)c2ccc(NC(=O)CSc3nc4ncc(Br)cc4[nH]3)cc2)nc(C)n1` here?
A: Its Potency is inconclusive [inhibitor, single point].

Q: Which Potency does the source give for `c1ccc(COc2cccc(CN3CCN(c4ccccn4)CC3)c2)cc1` here?
A: The Potency was inconclusive [inhibitor, single point].

Q: With `COc1cccc(C(c2nnnn2Cc2ccc(F)cc2)N2CCC(C(N)=O)CC2)c1OC` (configuration not stated) as the molecule, how does the Potency read?
A: Its Potency is inconclusive [inhibitor, partial curve, poor fit].

Q: Which Potency does the source give for `CCOC(=O)C1CCC(CN(Cc2ccccc2C)S(=O)(=O)c2ccc([N+](=O)[O-])cc2)CC1` (configuration not stated) here?
A: The Potency was inconclusive [inhibitor, single point].

Q: Which Potency does the source give for `CCN(c1ccc(C)cc1C)S(=O)(=O)c1nnc(NC(=O)c2ccco2)s1` here?
A: Its Potency is inconclusive [inhibitor, single point].

Q: With `S=C(NC1CCCCC1)N1CCc2[nH]c3ccccc3c2C1` as the molecule, how does the Potency read?
A: Its Potency is inconclusive [inhibitor, single point].

Q: With `O=C(CSc1nnnn1-c1ccc(F)cc1)NC1CCCCC1` as the molecule, how does the “activity change, negative = inhibition” value read?
A: Its value is inactive: 7.07%.

Q: With `CC(C)C[C@H](NC(=O)c1[nH]cnc1C(=O)N[C@H](C)c1ccccc1)C(=O)OC(C)(C)C` as the molecule, how does the Potency read?
A: Its Potency is inconclusive [inhibitor, single point].

Q: Which Potency does the source give for `Cn1c(SCC(=O)N2c3ccccc3Sc3ccccc32)nc2ccccc21` here?
A: The Potency was inconclusive [inhibitor, single point].

Q: Which Potency does the source give for `Cc1cc(C)cc(OCC(=O)Nc2cccc(S(=O)(=O)NC3=NCCC3)c2)c1` here?
A: The Potency was inconclusive [inhibitor, partial curve, poor fit].

Q: Which Potency does the source give for `CC12CNCC(C)(CN(C(c3ccccc3)c3ccccc3)C1)C2` here?
A: The Potency was inconclusive [inhibitor, single point].

Q: For `COC1CCN(Cc2c(C(=O)N3C[C@@H](C)O[C@@H](C)C3)nc3ccc(Cl)cn23)CC1`, which “activity change, negative = inhibition” value is on record?
A: Its value is inactive: 2.71%.

Q: Which Potency does the source give for `Cc1nc(N2CCN(S(=O)(=O)c3ccccc3)CC2)c2c3c(sc2n1)CC(C)CC3` (configuration not stated) here?
A: Its Potency is inconclusive [inhibitor, partial curve, poor fit].

Q: Which “activity change, negative = inhibition” value does the source give for `O=S(=O)(c1ccc(F)cc1)N1CCN(Cc2ccccc2C(F)(F)F)CC1` here?
A: Its value is inactive: -6%.

Q: For `Cc1ccc(N(C(=O)Cn2nnc3ccccc32)C(C(=O)NC2CCCCC2)c2cn(C)nc2C)cc1` (configuration not stated), which Potency is on record?
A: Its Potency is inconclusive [inhibitor, full curve].

Q: For `Cc1cc(C)cc(Nc2cc(=O)n(C3CCCCC3)c(=O)[nH]2)c1`, which Potency is on record?
A: The Potency was inconclusive [inhibitor, single point].
